Measured values: PubChem BioAssay AID1508623 (National Center for Advancing Translational Sciences (NCATS), 2021)
About 450 (0.94%) of roughly 48,000 compounds were called active. Not shown: some 19% with an inconclusive outcome. The call rests on the fitted dose curve; in most records, active means well fitted inhibition curve with a large enough effect; inconclusive means small, poorly fitted or top-dose-only effect; inactive means no such curve, though single readings can be large or run the other way. The list shows a part of the results.

test: Primary qHTS for Identification of Small Molecule Inhibitors of Huntingtin Promoter Activity; settings: HEK293 HTT promoter firefly luciferase reporter (activity 0% = vehicle and -100% = no light), 24 h; series mostly up to 57.5 µM; activity change, negative = inhibition: at the top concentration; further: nearly all actives have a fitted effect of over 50% in size
Procedure, shortened: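 HEK293 cells carrying firefly luciferase reporters were seeded at 2,500 per well in Opti-MEM and cultured for 24 h. They were then treated with compounds at up to 57.5 uM final for 24 h at 37 degrees C before Dual-Glo luminescence readout.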

Activity change, negative = inhibition, inactive:
COc1ccc2oc(-c3ccc(C)c(NC(=O)c4cccnc4)c3)nc2c1 -7.75%
COc1cc(OC)c(NC(=O)CSc2nccn2C)cc1Cl -26.4%
CC1CCN(c2oc(-c3cccs3)nc2S(=O)(=O)c2ccc(Cl)cc2)CC1 -10.5% [at 11.5 µM]
Cc1ccc(CNC(=O)c2ccc(-n3c(C)cc4c3CCCC4)cc2)cc1 -3.74%
Cc1ccc(OCC(=O)Nc2ccc3nc(SCC(=O)N4CCCC4)sc3c2)cc1 18.6%
O=C(CSc1nc2cc(C(=O)NC3CCCC3)ccc2c(=O)n1CC1CCCO1)c1ccc(F)cc1 (stereo not given) -6.74%
Cc1ccc(C)c(S(=O)(=O)c2cn(Cc3ccccc3)c3cc(F)c(F)cc3c2=O)c1 -28.1%
CCOC(=O)c1c(SCC(=O)Nc2nc3ccc(C)cc3s2)nc(=O)[nH]c1C -2.14%
Cc1cc(C)c2sc(N(Cc3cccnc3)C(=O)CCS(=O)(=O)c3ccccc3)nc2c1 0.91%
Cc1cccc(CSc2cn(CC(=O)N3CCCCC3)c3ccccc23)c1 -7.2%
O=C(Cn1cc(SCc2cccc(F)c2)c2ccccc21)N1CCOCC1 22.8%
CN(C)C(=N)N=C(N)N
O=C(c1cc(-c2ccc(Br)cc2)n[nH]1)N1CCN(S(=O)(=O)c2ccc(Br)cc2)CC1 -21.5%
CCC(=O)N1N=C(c2ccc(OC)cc2)CC1c1cn(-c2ccccc2)nc1-c1cccs1 (stereo not given) -11.6%
O=C(Cn1ccn(-c2ccc(F)cc2)c(=O)c1=O)NCCc1ccccc1 -12.9%
CCOc1ccc(N(c2nc(-c3ccc(OC)c(OC)c3)no2)c2nc(-c3ccc(OC)c(OC)c3)no2)cc1 10.1%
COC(=O)CSc1nc2c(cnn2-c2ccc(F)cc2)c(=O)[nH]1 -18.5%
CCc1ccc(NC(=O)CC2C(=O)OCCN2CC)cc1 (stereo not given) -1.87%
Cc1oc(-c2cccc(Br)c2)nc1CN1CCC(C(=O)NCCc2ccc(Cl)cc2)CC1 5.98%
CCOc1ccccc1NC(=O)C(CC(C)C)NS(=O)(=O)c1ccc2c(c1)CCN2C(C)=O (stereo not given) -15.3%
CCc1ccccc1NC(=O)Cn1ncc2c(C)n(Cc3ccccc3F)c(C)c2c1=O -14.3%
CC(C)CNC(=O)CCSc1nc(-c2ccc3c(c2)OCO3)cc(C(F)(F)F)n1 -4.15%
O=C(Cn1c(=O)n(Cc2nc(-c3ccccc3)no2)c(=O)c2cc3c(cc21)OCO3)Nc1ccc(Cl)cc1 -14.9%
Cc1ccc(C)c(N2CCN(c3ccc(NC(=O)c4cccs4)cc3C(=O)O)CC2)c1 -11.6%
CC(C)[C@H](N)C(=O)OCCOCn1cnc2c(=O)[nH]c(N)nc21
CCOc1ccc(-n2c(=O)c3c(C)c(C)sc3n(CC(=O)c3ccccc3)c2=O)cc1 -18.2%
CCN(CC)CCCNC(=O)c1c(C)oc2ncn(CC(C)C)c(=O)c12 -21.5%
CCc1ccc(-n2nc(C)c3c(C)cc(=O)n(CC(=O)Nc4ccc(C)c(F)c4)c32)cc1 -8.3%
CCCCN(C)S(=O)(=O)c1cc(-c2nnc3c4ccccc4c(C)nn23)ccc1C 2.75%
CN(C)c1ccc(NC(=O)CCSc2nc(-c3ccco3)cc(C(F)(F)F)n2)cc1 3.64%
COc1cccc(OC)c1-c1cc(C(=O)NC2(C(=O)O)C3CC4CC(C3)CC2C4)nn1-c1ccnc2cc(Cl)ccc12 (stereo not given) 5.03%
CC1CCc2c(sc(NC(=O)CCCOc3ccc(C(C)(C)C)cc3)c2C(N)=O)C1 (stereo not given) -16.4%
COc1cc(Br)c(C2CC(=O)Nc3cc(OC)c(OC)c(OC)c32)cc1OC (stereo not given) -16.5%
COCCCNC(=O)c1cc2c(=O)n3cccc(C)c3nc2s1 21.8%
CO[C@@H]1[C@@H](OC(N)=O)[C@@H](O)[C@H](Oc2ccc3c(O)c(NC(=O)c4ccc(O)c(CC=C(C)C)c4)c(=O)oc3c2C)OC1(C)C
CCCCc1nc2ccccc2n2c(-c3ccc(C)cc3)c3c(=O)n(C)c(=O)n(C)c3c12 -7.52% [at 11.5 µM]
CSc1cccc(NC(=O)CN(c2ccccc2)S(=O)(=O)N(C)C)c1 -2.1%
CC1CCN(S(=O)(=O)c2ccc3c(c2)N(CC(=O)NC(C)c2ccccc2)C(=O)CO3)CC1 (stereo not given) -13.6%
Cc1cc(N2CCCCC2)nc2ccc(NC(=O)c3cccc(F)c3)cc12 -18%
CCCc1nnc(NC(=O)Cc2coc3cc(C)cc(C)c23)s1 -16.1%
CCCN1CCN(CCCNC(=O)c2cnn(-c3ccc(F)cc3)c2-n2cccc2)CC1 -30.8%
O=C(Cn1c(=O)n(-c2ccccc2)c(=O)c2sc3ccccc3c21)N1CCCC1 4.71%
O=[N+]([O-])c1cc(-c2nc(-c3cccnc3)no2)ccc1NCc1ccccc1 -5.45%
CC(C)c1ccc(NC(=O)CN2C(=O)COc3ccc(S(=O)(=O)Nc4ccccc4)cc32)cc1 -25.6%
CC(C)OCCCNC(=O)CCCn1c(SCC(=O)c2ccc(F)cc2)nc2c(sc3ccccc32)c1=O -9.47%
COc1ccc(CCNC(=O)c2nnc(Cc3ccc(Cl)cc3)o2)cc1OC -20.6%
O=Nc1c(-c2c(O)[nH]c3cc(Br)ccc23)[nH]c2ccccc12 -7.53%
COc1ccc(-c2nn3c(=O)cc(CN4CCN(C(=O)Nc5ccc(C)c(Cl)c5)CC4)nc3s2)cc1 -10.6%
Cc1ccc2oc(=O)c3cnn(CC(=O)Nc4cccc(C(F)(F)F)c4)c3c2c1 -3.35%
Cc1c(C(=O)NCc2ccccc2)sc2nc3n(c(=O)c12)CCC3 44.1%
CCCOC(=O)c1ccc(NC(=O)Cc2csc(C)n2)cc1 4.1%
CCC(=O)N1CCc2cc(Br)cc(S(=O)(=O)NCc3ccc(Cl)cc3)c21 -12.6%
COc1ccc(N2CCN(C(=O)c3ccc(CS(=O)(=O)c4ccc(Br)cc4)o3)CC2)cc1 -14.8%
CN(C)CCNC(=O)CCCN1C(=O)c2cccnc2Oc2ccc(Cl)cc21 11.9%
CCN(c1ccccc1)c1nnc(NC(=O)Nc2cccc(Br)c2)s1 -8.45%
Cc1cc(C)cc(-n2ccn(CC(=O)Nc3ccccc3C(F)(F)F)c(=O)c2=O)c1 -12.4%
Cc1ccc(N2CC(C)Cn3c2nc2c3c(=O)n(CC(=O)O)c(=O)n2C)cc1 (stereo not given) 0.908%
COCCCNC(=O)CSc1c2c(nc3ccc(Cl)cc13)CCCC2 -12.3%
CCN(c1ccc(OC)cc1)S(=O)(=O)c1nnc(NC(=O)c2ccccc2Cl)s1 -17.3%
CCOc1ccc(C2c3c(oc4ccc(C)cc4c3=O)C(=O)N2Cc2ccc3c(c2)OCO3)cc1OC (stereo not given) 4.69%
Cc1nc(-c2ccccc2)sc1CCNC(=O)c1ccco1 -8.67%
CCc1ccccc1NC(=O)CSc1ncc2c(n1)-c1ccccc1N(Cc1ccc(C)cc1)S2(=O)=O -19.5%
Cc1ccc(S(=O)(=O)c2cn(Cc3ccccc3)c3cc(N4CCCC4)c(F)cc3c2=O)cc1C -15.3%
COc1ccccc1CNS(=O)(=O)c1c(C)nc2sccn2c1=O 0.959%
CCOC(=O)c1ccccc1NS(=O)(=O)c1c(-c2ccc(C)cc2)csc1C(=O)OC -8.15%
COc1cccc(CNC(=O)CCc2c(C)c3cc4c(C)c(C)oc4cc3oc2=O)c1 5.21%
O=C(Nc1ccc(NC(=O)c2cccs2)cc1)c1ccc(Br)cc1 -14.5%
CC(C)(C)C(=O)Nc1ccc2nc(SCC(=O)N3CCCC3)sc2c1 24.6%
O=C(OCc1ccccc1Cl)c1ccc(-c2nnn(Cc3ccccc3)n2)cc1 10.3%
CCN(CCCNC(=O)c1cc2cc3cc(C)ccc3nc2s1)c1cccc(C)c1 0%
NCC1CCC(C(=O)Oc2ccc(CCC(=O)O)cc2)CC1 (stereo not given) -23.4%
COc1ccc(/C=C(/C#N)c2nc(-c3ccc(-c4ccccc4)cc3)cs2)cc1 2.86%
Cc1ccc(C)c(NC(=O)C(=O)NCCc2csc(-c3ccc(C(F)(F)F)cc3)n2)c1 -1.18%
CCOC(=O)Cn1c(=O)cc(-c2ccccc2)c2c(C)nn(C)c21 0%
CCC(C)NC(=O)Cn1c(=O)n(-c2ccc(C)cc2)c(=O)c2ccccc21 (stereo not given) -15.3%
CCc1ccccc1N(CC)C(=O)c1cc2c(s1)-c1ccccc1OC2 -20.8%
CCc1ccc(-n2nc(CO)c(C(=O)NCc3ccccn3)n2)cc1 0.887%
Cc1ccccc1CSc1nc2nc(C)c(Cc3ccccc3)c(C)n2n1 7.15%
COc1ccc(OC)c(CCNC(=O)c2ccc(CS(=O)Cc3cccc(Cl)c3)o2)c1 (stereo not given) -7.84%
Cc1nc(-c2ccccc2)sc1-c1ccc(SCC(=O)Nc2ccc(F)cc2F)nn1 -1.2%
Cc1oc2ncnc(N3CCCCC3)c2c1C(=O)NCC1CCN(Cc2ccc(F)cc2)CC1 -9.46%
CCC(CC)c1nn2c(=O)cc(COc3ccc(NC(=O)c4ccc(Cl)cc4)cc3)nc2s1 -5.62%
COc1ccc(-n2ncc(C(=O)N3CCN(c4ccccn4)CC3)c2C2CCN(C(=O)OC(C)(C)C)CC2)cc1 -0.427%
CC(Sc1oc(-c2ccco2)nc1S(=O)(=O)c1ccc(Br)cc1)c1ccccc1 (stereo not given) -24.5%
COCCNC(=O)c1c(NC(=O)Cc2coc3cc(C)ccc23)sc2c1CCCC2 -31.7%
CCC(C)NC(=O)c1ccc2c(c1)N(Cc1cccc(Cl)c1)C(=O)c1ccccc1S2=O (stereo not given) -21.2%
Nc1nc(-c2ccccc2)c(Br)c(=O)[nH]1 11.3%
CCOC(=O)c1cn(CC(=O)Nc2cccc(Cl)c2C)nn1 -18.6%
Cc1nnc(N2CCN(c3ccccc3F)CC2)c2c1nnn2Cc1ccc(F)cc1 -26.5%
CCOc1ccccc1NC(=O)C(NS(=O)(=O)c1cccc2nsnc12)c1ccccc1 (stereo not given) -4.25%
CCc1cccc(CC)c1NC(=O)c1cc(S(=O)(=O)N2CCc3ccccc32)cn1C -22.2%
Cc1ccc(CN2CCCn3nc(C(=O)NCCN(C)C)cc3C2=O)cc1 -12.1%
CCOC(=O)c1c(C)[nH]c(C)c1S(=O)(=O)N1CCC(C(=O)NCc2ccccc2)CC1 -8.37%
Cc1ccc(C)c(OCCSc2nc3ccccc3n2CC(=O)N2CCOCC2)c1 -12%
COc1ccc(NC(=O)Cc2coc3cc(C)cc(C)c23)c(OC)c1 -6.3%
